# Laboratory results from the supplement of paper PMC8728848.
# This is one part of the list.
# Columns and labels:
# Experiment in all cases: glycan array binding signal (z-score within array); higher = stronger binding
# Conditions in all cases: glycan notation: IUPAC condensed, linker removed
# [1] = target: Neu5Ac(a2-3)Gal(b1-3)[Fuc(a1-4)]GlcNAc
# Summary of the method: (§1)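 The binding signal is a Z-score computed within each array and averaged over linkers. Arrays of the same protein sequence at different concentrations or buffers were also averaged together. Data originate from 3228 arrays in the Consortium for Functional Glycomics database, kept only where the protein sequence was available.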
# [2] = target: Neu5Ac(a2-3)Gal(b1-3)[Fuc(a1-4)]GlcNAc(b1-3)Gal(b1-3)[Fuc(a1-4)]GlcNAc
# Summary of the method: as §1
# [3] = target: Neu5Ac(a2-3)Gal(b1-3)[Fuc(a1-4)]GlcNAc(b1-3)Gal(b1-4)[Fuc(a1-3)]GlcNAc
# Summary of the method: as §1
# [4] = target: Neu5Ac(a2-3)Gal(b1-3)[Neu5Ac(a2-3)Gal(b1-4)]GlcNAc
# Summary of the method: as §1
# [5] = target: Neu5Ac(a2-3)Gal(b1-3)[Neu5Ac(a2-6)]GalNAc
# Summary of the method: as §1
# Neu5Ac(a2-3)Gal(b1-4)Glc = target: Neu5Ac(a2-3)Gal(b1-4)Glc
# Summary of the method: as §1
# [6] = target: Neu5Ac(a2-3)Gal(b1-4)GlcNAc
# Summary of the method: as §1
# [7] = target: Neu5Ac(a2-3)Gal(b1-4)GlcNAc(b1-2)Man(a1-3)[GlcNAc(b1-2)Man(b1-4)GlcNAc(b1-2)Man(a1-6)]Man(b1-4)GlcNAc(b1-4)GlcNAc
# Summary of the method: as §1
# [8] = target: Neu5Ac(a2-3)Gal(b1-4)GlcNAc(b1-2)Man(a1-3)[Neu5Ac(a2-3)Gal(b1-4)GlcNAc(b1-2)Man(a1-6)]Man(b1-4)GlcNAc(b1-4)GlcNAc
# Summary of the method: as §1
# [9] = target: Neu5Ac(a2-3)Gal(b1-4)GlcNAc(b1-2)Man(a1-3)[Neu5Ac(a2-6)Gal(b1-4)GlcNAc(b1-2)Man(a1-6)]Man(b1-4)GlcNAc(b1-4)GlcNAc
# Summary of the method: as §1
# [10] = target: Neu5Ac(a2-3)Gal(b1-4)GlcNAc(b1-3)Gal
# Summary of the method: as §1
# [11] = target: Neu5Ac(a2-3)Gal(b1-4)GlcNAc(b1-3)Gal(b1-3)GlcNAc
# Summary of the method: as §1
# [12] = target: Neu5Ac(a2-3)Gal(b1-4)GlcNAc(b1-3)Gal(b1-4)GlcNAc
# Summary of the method: as §1
# [13] = target: Neu5Ac(a2-3)Gal(b1-4)GlcNAc(b1-3)Gal(b1-4)GlcNAc(b1-3)Gal(b1-4)GlcNAc
# Summary of the method: as §1
# [14] = target: Neu5Ac(a2-3)Gal(b1-4)GlcNAc(b1-3)Gal(b1-4)[Fuc(a1-3)]GlcNAc
# Summary of the method: as §1
# [15] = target: Neu5Ac(a2-3)Gal(b1-4)GlcNAc(b1-3)GalNAc
# Summary of the method: as §1
# [16] = target: Neu5Ac(a2-3)Gal(b1-4)GlcNAc(b1-6)[Gal(b1-3)]GalNAc
# Summary of the method: as §1
# [17] = target: Neu5Ac(a2-3)Gal(b1-4)GlcNAc(b1-6)[Neu5Ac(a2-3)Gal(b1-3)]GalNAc
# Summary of the method: as §1
# [18] = target: Neu5Ac(a2-3)Gal(b1-4)GlcNAc6S
# Summary of the method: as §1
# [19] = target: Neu5Ac(a2-3)Gal(b1-4)[Fuc(a1-3)]GlcNAc
# Summary of the method: as §1
# [20] = target: Neu5Ac(a2-3)Gal(b1-4)[Fuc(a1-3)]GlcNAc(b1-3)Gal
# Summary of the method: as §1
# [21] = target: Neu5Ac(a2-3)Gal(b1-4)[Fuc(a1-3)]GlcNAc(b1-3)Gal(b1-4)GlcNAc
# Summary of the method: as §1
# [22] = target: Neu5Ac(a2-3)Gal(b1-4)[Fuc(a1-3)]GlcNAc(b1-3)Gal(b1-4)[Fuc(a1-3)]GlcNAc(b1-3)Gal(b1-4)[Fuc(a1-3)]GlcNAc
# Summary of the method: as §1
# [23] = target: Neu5Ac(a2-3)Gal(b1-4)[Fuc(a1-3)]GlcNAc(b1-3)GalNAc
# Summary of the method: as §1
# [24] = target: Neu5Ac(a2-3)Gal(b1-4)[Fuc(a1-3)]GlcNAc(b1-6)[Gal(b1-3)]GalNAc
# Summary of the method: as §1
# [25] = target: Neu5Ac(a2-3)Gal(b1-4)[Fuc(a1-3)]GlcNAc(b1-6)[Neu5Ac(a2-3)Gal(b1-3)]GalNAc
# Summary of the method: as §1
# [26] = target: Neu5Ac(a2-3)Gal(b1-4)[Fuc(a1-3)]GlcNAc6S
# Summary of the method: as §1
# [27] = target: Neu5Ac(a2-3)Gal6S(b1-4)GlcNAc
# Summary of the method: as §1
# [28] = target: Neu5Ac(a2-3)Gal6S(b1-4)[Fuc(a1-3)]GlcNAc
# Summary of the method: as §1
# Neu5Ac(a2-3)GalNAc = target: Neu5Ac(a2-3)GalNAc
# Summary of the method: as §1
# [29] = target: Neu5Ac(a2-3)GalNAc(b1-4)GlcNAc
# Summary of the method: as §1
# [30] = target: Neu5Ac(a2-3)[GalNAc(b1-4)]Gal(b1-4)Glc
# Summary of the method: as §1
# [31] = target: Neu5Ac(a2-3)[GalNAc(b1-4)]Gal(b1-4)GlcNAc
# Summary of the method: as §1
# [32] = target: Neu5Ac(a2-3)[GalNAc(b1-4)]Gal(b1-4)GlcNAc(b1-3)GalNAc
# Summary of the method: as §1
# [33] = target: Neu5Ac(a2-3)[Neu5Ac(a2-6)]GalNAc
# Summary of the method: as §1
# Neu5Ac(a2-6)Gal = target: Neu5Ac(a2-6)Gal
# Summary of the method: as §1
# [34] = target: Neu5Ac(a2-6)Gal(b1-3)GlcNAc(b1-3)[Gal(b1-4)GlcNAc(b1-6)]Gal(b1-4)Glc
# Summary of the method: as §1
# Neu5Ac(a2-6)Gal(b1-4)Glc = target: Neu5Ac(a2-6)Gal(b1-4)Glc
# Summary of the method: as §1
# [35] = target: Neu5Ac(a2-6)Gal(b1-4)GlcNAc
# Summary of the method: as §1
# [36] = target: Neu5Ac(a2-6)Gal(b1-4)GlcNAc(b1-2)Man(a1-3)Man(b1-4)GlcNAc(b1-4)GlcNAc
# Summary of the method: as §1
# [37] = target: Neu5Ac(a2-6)Gal(b1-4)GlcNAc(b1-2)Man(a1-3)[Gal(b1-4)GlcNAc(b1-2)Man(a1-6)]Man(b1-4)GlcNAc(b1-4)GlcNAc
# Summary of the method: as §1
binder,measurement,setting,value
"BC2L-A (Burkholderia cenocepacia), Q1BKJ8_BURCA (protein) ADSQTSSNRAGEFSIPPNTDFRAIFFANAAEQQHIKLFIGDSQEPAAYHKLTTRDGPREATLNSGNGKIRFEVSVNGKPSATDARLAPINGKKSDGSPFTVNFGIVVSEDGHDSDYNDGIVVLQWPIG",glycan array binding signal (z-score),[1],0.034
same,glycan array binding signal (z-score),[2],0.536
same,glycan array binding signal (z-score),[3],0.563
same,glycan array binding signal (z-score),[4],-0.246
same,glycan array binding signal (z-score),[5],-0.083
same,glycan array binding signal (z-score),Neu5Ac(a2-3)Gal(b1-4)Glc,-0.293
same,glycan array binding signal (z-score),[6],-0.289
same,glycan array binding signal (z-score),[7],-0.271
same,glycan array binding signal (z-score),[8],-0.22
same,glycan array binding signal (z-score),[9],-0.296
same,glycan array binding signal (z-score),[10],-0.214
same,glycan array binding signal (z-score),[11],-0.291
same,glycan array binding signal (z-score),[12],-0.289
same,glycan array binding signal (z-score),[13],-0.291
same,glycan array binding signal (z-score),[14],-0.292
same,glycan array binding signal (z-score),[15],-0.296
same,glycan array binding signal (z-score),[16],-0.299
same,glycan array binding signal (z-score),[17],-0.234
same,glycan array binding signal (z-score),[18],-0.295
same,glycan array binding signal (z-score),[19],-0.291
same,glycan array binding signal (z-score),[20],-0.291
same,glycan array binding signal (z-score),[21],-0.255
same,glycan array binding signal (z-score),[22],-0.163
same,glycan array binding signal (z-score),[23],-0.255
same,glycan array binding signal (z-score),[24],-0.294
same,glycan array binding signal (z-score),[25],-0.237
same,glycan array binding signal (z-score),[26],-0.293
same,glycan array binding signal (z-score),[27],-0.272
same,glycan array binding signal (z-score),[28],-0.292
same,glycan array binding signal (z-score),Neu5Ac(a2-3)GalNAc,-0.293
same,glycan array binding signal (z-score),[29],-0.288
same,glycan array binding signal (z-score),[30],-0.295
same,glycan array binding signal (z-score),[31],-0.28
same,glycan array binding signal (z-score),[32],-0.218
same,glycan array binding signal (z-score),[33],-0.293
same,glycan array binding signal (z-score),Neu5Ac(a2-6)Gal,-0.29
same,glycan array binding signal (z-score),[34],-0.219
same,glycan array binding signal (z-score),Neu5Ac(a2-6)Gal(b1-4)Glc,-0.287
same,glycan array binding signal (z-score),[35],-0.29
same,glycan array binding signal (z-score),[36],-0.285
same,glycan array binding signal (z-score),[37],-0.288
